Results reported in PubChem BioAssay AID652104 (National Center for Advancing Translational Sciences (NCATS), 2013).
Screen size: about 410,000 compounds; about 7,200 (1.8%) were called active. The shares of active, inactive and inconclusive entries below differ from those in the screen. Calls follow the shape of the dose curve; as a rule, active = well fitted activation curve with a large enough effect; inconclusive = small, poorly fitted or top-dose-only effect, or another doubt; inactive = no such curve, though single readings can be large or run the other way. A potency beside an inconclusive call is a rough fit, not a confirmed value.

Test: qHTS of TDP-43 Inhibitors; also: nearly all actives have a fitted effect of over 50% in size; as to growth rescue (activation): % of control where 0% means no effect
Settings: TDP-43 expressing yeast growth rescue, BacTiter-Glo, 24 h; growth rescue (activation): at 46.1 µM (top of the series) unless noted
Method in brief: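 Galactose-induced TDP-43 yeast, OD600=0.02, compound pinned; 24 hr, 30 deg C; BacTiter-Glo luminescence for growth. Inhibitors of TDP-43 toxicity read as activators.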
Potency is read from the fitted curve at half-maximal effect; tags tell the direction and shape of the fitted curve.

Potency, inconclusive:
COc1ccc(NC2=Nc3ccccc3N3C2=Nc2c(c(C)nn2-c2ccc(C)cc2)C3c2cccnc2)cc1 (centres undefined) 22.4 µM [activator, single point], CCn1cc(C(=O)N2CCN(c3ccc(C(C)=O)cc3)CC2)c2cc(OC)c(OC)cc2c1=O 0.501 µM [activator, full curve, poor fit], O=C(Nc1ccc(S(=O)(=O)N2CCCCC2)cc1)c1ccc(F)cc1 11.2 µM [activator, partial curve], Cc1cc(C(C)(C)CC(C)(C)C)ccc1OCCOCC[N+](C)(C)Cc1ccccc1 35.5 µM [activator, single point], COc1ccc(NC(=O)CCCc2ccc(OC)c(C)c2)cc1 5.62 µM [activator, full curve, poor fit], Cc1ccc2sc(N3CCN(C(=O)C4=COCCO4)CC3)nc2c1C 10 µM [activator, partial curve], O=C(Nc1ccccc1)c1ccc(Br)o1 7.08 µM [activator, full curve], COc1ccc(OC)c(CCNC(=O)c2csc3c2CCCCC3)c1 3.55 µM [activator, partial curve], Cc1nn(Cc2c(F)c(F)c(F)c(F)c2F)c(C)c1NC(=O)c1ccc(COc2ccccc2Cl)o1 10 µM [activator, single point], Cc1ccc(S(=O)(=O)C2(S(=O)(=O)c3ccc(C)cc3)CC2)cc1 22.4 µM [activator, single point], Cc1ccc(C(=O)C=Cc2ccc3c(c2)OCO3)c(C)c1 17.8 µM [activator, partial curve], O=C(Nc1ccc(N2CCOCC2)cc1N1CCOCC1)c1ncoc1-c1cccc(F)c1 17.8 µM [activator, single point]

Potency, active:
O=C(COc1ccc(Cl)cc1Cl)NNC(=S)NC(=O)c1ccco1 17.8 µM

Potency, inactive:
Cc1nc(NCCN2CCOCC2)c2oc3ccccc3c2n1, COC(=O)c1ccc(CSc2nncn2N)cc1, O=C(N/N=C/c1ccc(O)cc1)c1cc(-c2ccccc2)nc2ccccc12, Cc1csc2nc(COc3ccccc3NC(=O)c3ccc(C(C)(C)C)cc3)cc(=O)n12, Cc1cccc2c1-c1sc(C(=O)N(C)c3cccc(C(F)(F)F)c3)cc1CO2

Growth rescue (activation), inconclusive:
O=[N+]([O-])c1cnc(Sc2ccncn2)c([N+](=O)[O-])c1 -93% [activator]
